Measured values as given in PMC4336329 (PLoS ONE, 2015).
The campaign covered roughly 310,000 compounds. About 2,200 (0.71%) showed an effect of 50% or more. Effects have a minus sign here. This is one part of the list.

What follows are compounds tested against human ether-à-go-go-related gene (hERG) potassium channel (human, UniProt Q12809) (assay: primary screen, population patch clamp on CHO cells stably expressing hERG).
Sequence of human ether-à-go-go-related gene (hERG) potassium channel (Q12809 whole entry, looked up): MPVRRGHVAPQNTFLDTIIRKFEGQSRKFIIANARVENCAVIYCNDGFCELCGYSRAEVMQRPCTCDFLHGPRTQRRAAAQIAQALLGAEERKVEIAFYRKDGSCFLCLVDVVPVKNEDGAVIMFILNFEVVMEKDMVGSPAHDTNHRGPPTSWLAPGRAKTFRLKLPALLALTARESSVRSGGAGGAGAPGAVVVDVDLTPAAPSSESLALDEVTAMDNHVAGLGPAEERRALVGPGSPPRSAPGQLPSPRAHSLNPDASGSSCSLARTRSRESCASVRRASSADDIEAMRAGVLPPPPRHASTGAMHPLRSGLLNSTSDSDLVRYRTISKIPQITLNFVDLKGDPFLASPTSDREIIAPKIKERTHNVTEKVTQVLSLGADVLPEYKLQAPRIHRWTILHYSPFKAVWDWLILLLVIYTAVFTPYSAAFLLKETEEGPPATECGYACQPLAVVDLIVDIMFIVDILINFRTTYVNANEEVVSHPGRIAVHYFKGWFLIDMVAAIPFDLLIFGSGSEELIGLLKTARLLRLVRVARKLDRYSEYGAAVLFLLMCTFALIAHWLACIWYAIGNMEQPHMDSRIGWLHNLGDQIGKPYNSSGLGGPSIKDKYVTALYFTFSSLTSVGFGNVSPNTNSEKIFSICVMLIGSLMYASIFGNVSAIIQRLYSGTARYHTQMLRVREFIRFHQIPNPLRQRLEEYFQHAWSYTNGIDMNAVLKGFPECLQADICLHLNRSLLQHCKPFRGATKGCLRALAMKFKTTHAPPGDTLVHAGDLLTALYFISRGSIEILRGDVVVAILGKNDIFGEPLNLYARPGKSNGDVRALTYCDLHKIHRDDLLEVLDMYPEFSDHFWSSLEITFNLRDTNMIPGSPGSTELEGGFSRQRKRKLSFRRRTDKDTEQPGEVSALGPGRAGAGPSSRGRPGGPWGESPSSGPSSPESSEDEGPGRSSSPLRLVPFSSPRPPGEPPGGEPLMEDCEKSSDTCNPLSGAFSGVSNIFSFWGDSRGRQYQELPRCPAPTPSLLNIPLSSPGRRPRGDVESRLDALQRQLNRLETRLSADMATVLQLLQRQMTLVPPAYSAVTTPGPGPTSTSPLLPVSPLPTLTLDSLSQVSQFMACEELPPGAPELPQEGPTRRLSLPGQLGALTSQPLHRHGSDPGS

| Compound | hERG current change (%, negative = inhibition) at 1uM [%] |
| --- | --- |
| Cc1[nH]n(-c2ccccc2)c(=O)c1/C=N\NC(=O)C1COc2ccccc2O1 (stereo not drawn) | 12.4 |
| O=C(NNc1cccc(Cl)n1)c1c(F)cccc1F | 13.1 |
| Cc1cccc(-n2c(C)nc3cc(C(=O)NCc4ccc5c(c4)OCO5)ccc32)c1 | 3.92 |
| COc1ccc(NC(=O)Cc2c(F)cccc2Cl)cc1 | 17 |
| CCC(=NCc1ccc(Cl)c(Cl)c1)c1nc(-c2ccco2)oc1O | 18.5 |
| COC(=O)c1cc(NC(=O)CSC2=NCCS2)cc(C(=O)OC)c1 | 6.21 |
| O=C(Nc1ccccc1C(=O)NCCCn1ccnc1)c1ccccc1 | -2.45 |
| C=CCO/N=C/C1=C(O)C(C(=O)OC)C(C)(C)CC1=O (stereo not drawn) | -1.13 |
| CCOC(=O)c1c(NC(=O)Cn2cnc([N+](=O)[O-])n2)sc2c1CCC(C)C2 (stereo not drawn) | 9.35 |
| CC(=O)c1c(C)[nH]c(C(=O)CN2C(=O)NC(C)(c3ccc4c(c3)OCCO4)C2=O)c1C (stereo not drawn) | 5.11 |
| CCn1nc(C)c(/C=C/C(=O)Nc2ccc(C)cc2C)c1C | 20.5 |
| CCOc1ccccc1NC(=O)NNS(=O)(=O)c1cc(OC)ccc1OC | 14.3 |
| CS(=O)(=O)N(CC(=O)N1CCCCC1)Cc1ccc(Cl)cc1 | 5.04 |
| COc1ccc(-c2nc3cc(NC(=S)NC(=O)Cc4ccccc4)ccc3o2)cc1 | 14.1 |
| CC(=O)c1c(C)[nH]c(C(=O)/C(C#N)=C/c2cccc(C)c2)c1C | 12.6 |
| O=C(C1CCCN(c2ncnc3c2nc2n3CCCCC2)C1)N1CCN(c2ccc(F)cc2)CC1 (stereo not drawn) | -1.48 |
| CCOC(=O)Cc1csc(NC(=S)NC(=O)c2ccc([N+](=O)[O-])cc2)n1 | 12.3 |
| CCOC(=O)COc1c(/C=N\O)cc(Cl)cc1OC | -0.55 |
| COc1cc2c(cc1OC)C(C(=O)N(C)Cc1ccccc1)C(c1cccnc1)N(C)C2=O (stereo not drawn) | 1.04 |
| Cc1ccn2c(=O)c(NC(=O)c3cccs3)c(C)nc2c1 | 10.3 |
| COCCNC(=O)NC(=O)COC(=O)c1cc([N+](=O)[O-])ccc1Sc1nc(C)cs1 | 8.78 |
| Cc1oc(-c2cccc(Cl)c2)nc1CN1CCC(C(=O)NC2CC2)CC1 | 14.6 |
| Cc1cccc(NC(=O)c2cc(-c3ccc(C)s3)nc3ccccc23)n1 | 8.15 |
| O=c1c2ccccc2nc(-c2ccccc2)n1Cc1ccccc1 | 12 |
